Consider 32 sequences from PMC12820563.

This is one part of the list. The list includes weakly bound sequences.

In this assay the target is T1, MBP-FoxP3dN (UniProt Q99JB6).
T1 sequence: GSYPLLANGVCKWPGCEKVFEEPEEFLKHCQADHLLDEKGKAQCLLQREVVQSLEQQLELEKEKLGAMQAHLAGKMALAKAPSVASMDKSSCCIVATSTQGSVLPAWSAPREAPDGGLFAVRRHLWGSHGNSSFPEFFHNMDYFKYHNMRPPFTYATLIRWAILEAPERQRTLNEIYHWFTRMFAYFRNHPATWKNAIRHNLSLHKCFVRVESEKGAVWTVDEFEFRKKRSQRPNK
The assay can be described thus: PD-seq (MBP pull-down with sequencing). The following applies: 20 mM Tris-HCl pH 7.5, 100 mM NaCl, 1.5 mM MgCl2, 0.4 uM protein, 0.1 uM dsDNA library, 30 min, room temperature, amylose pull-down; high values mean tight binding; double strand, one strand shown.
As to “GATGATTGTTCTCCCAGCTGATGAATTAAAGAAATCGAGTAAACAAATTTTCCTAATCTTTCTGTTCAAGCGCCATCTAC”, the binding signal (RPM ratio (pull-down/input)) was found to be 0.264.

Take “GATGATTGTTCTCCCAGCTGATGAATTCAACTGCTCGAGTAAACAAATTTTCCTAATCTTTCTGTTCAAGCGCCATCTAC”: the binding signal (RPM ratio (pull-down/input)) worked out at 0.33. As to “GATGATTGTTCTCCCAGCTGATGAATTCACGACATCGAGTAAACAAATTTTCCTAATCTTTCTGTTCAAGCGCCATCTAC”, the binding signal (RPM ratio (pull-down/input)) was determined as 0.488. As for “GATGATTGTTCTCCCAGCTGATGAATTTGCATAATCGAGTAAACAAATTTTCCTAATCTTTCTGTTCAAGCGCCATCTAC”, the binding signal (RPM ratio (pull-down/input)) amounted to 1.36. The value for “GATGATTGTTCTCCCAGCTGATGAATTTACGAACTCGAGTAAACAAATTTTCCTAATCTTTCTGTTCAAGCGCCATCTAC” was 0.335; that for “GATGATTGTTCTCCCAGCTGATGAATTAGCCGTGTCGAGTAAACAAATTTTCCTAATCTTTCTGTTCAAGCGCCATCTAC” was 0.436. The result for “GATGATTGTTCTCCCAGCTGATGAATTTAGCGGATCGAGTAAACAAATTTTCCTAATCTTTCTGTTCAAGCGCCATCTAC” reads 0.292; that for “GATGATTGTTCTCCCAGCTGATGAATTCGAGATTTCGAGTAAACAAATTTTCCTAATCTTTCTGTTCAAGCGCCATCTAC”, 0.339. The result for “GATGATTGTTCTCCCAGCTGATGAATTCTTCGTTTCGAGTAAACAAATTTTCCTAATCTTTCTGTTCAAGCGCCATCTAC” reads 0.329; that for “GATGATTGTTCTCCCAGCTGATGAATTTGCCAACTCGAGTAAACAAATTTTCCTAATCTTTCTGTTCAAGCGCCATCTAC”, 0.47.

As to “GATGATTGTTCTCCCAGCTGATGAATTCTAGGATTCGAGTAAACAAATTTTCCTAATCTTTCTGTTCAAGCGCCATCTAC”, the binding signal (RPM ratio (pull-down/input)) came to 0.262. For the sequence “GATGATTGTTCTCCCAGCTGATGAATTCAGGGCTTCGAGTAAACAAATTTTCCTAATCTTTCTGTTCAAGCGCCATCTAC”, the binding signal (RPM ratio (pull-down/input)) stood at 0.387. The result for “GATGATTGTTCTCCCAGCTGATGAATTGGAGACGTCGAGTAAACAAATTTTCCTAATCTTTCTGTTCAAGCGCCATCTAC” reads 0.273. “GATGATTGTTCTCCCAGCTGATGAATTGCATGACTCGAGTAAACAAATTTTCCTAATCTTTCTGTTCAAGCGCCATCTAC”: the binding signal (RPM ratio (pull-down/input)) amounted to 0.831. The value for “GATGATTGTTCTCCCAGCTGATGAATTCGCAAAATCGAGTAAACAAATTTTCCTAATCTTTCTGTTCAAGCGCCATCTAC” was 0.228. The value for “GATGATTGTTCTCCCAGCTGATGAATTTGTGACTTCGAGTAAACAAATTTTCCTAATCTTTCTGTTCAAGCGCCATCTAC” was 1.88. The result for “GATGATTGTTCTCCCAGCTGATGAATTATGAGGATCGAGTAAACAAATTTTCCTAATCTTTCTGTTCAAGCGCCATCTAC” reads 0.385; that for “GATGATTGTTCTCCCAGCTGATGAATTAATTACGTCGAGTAAACAAATTTTCCTAATCTTTCTGTTCAAGCGCCATCTAC”, 0.77. As for “GATGATTGTTCTCCCAGCTGATGAATTTGGCACGTCGAGTAAACAAATTTTCCTAATCTTTCTGTTCAAGCGCCATCTAC”, the binding signal (RPM ratio (pull-down/input)) is 1.37. The result for “GATGATTGTTCTCCCAGCTGATGAATTGACAACGTCGAGTAAACAAATTTTCCTAATCTTTCTGTTCAAGCGCCATCTAC” reads 0.517. Take “GATGATTGTTCTCCCAGCTGATGAATTACCAACGTCGAGTAAACAAATTTTCCTAATCTTTCTGTTCAAGCGCCATCTAC”: the binding signal (RPM ratio (pull-down/input)) is 0.44.

Consider “GATGATTGTTCTCCCAGCTGATGAATTATAAGTTTCGAGTAAACAAATTTTCCTAATCTTTCTGTTCAAGCGCCATCTAC”, for which the binding signal (RPM ratio (pull-down/input)) is 0.489. The result for “GATGATTGTTCTCCCAGCTGATGAATTCTCTATGTCGAGTAAACAAATTTTCCTAATCTTTCTGTTCAAGCGCCATCTAC” reads 0.308; that for “GATGATTGTTCTCCCAGCTGATGAATTCCAGATGTCGAGTAAACAAATTTTCCTAATCTTTCTGTTCAAGCGCCATCTAC”, 0.326. The result for “GATGATTGTTCTCCCAGCTGATGAATTTTGATCATCGAGTAAACAAATTTTCCTAATCTTTCTGTTCAAGCGCCATCTAC” reads 0.562; that for “GATGATTGTTCTCCCAGCTGATGAATTGGACGATTCGAGTAAACAAATTTTCCTAATCTTTCTGTTCAAGCGCCATCTAC”, 0.28.

For “GATGATTGTTCTCCCAGCTGATGAATTCGTCTAGTCGAGTAAACAAATTTTCCTAATCTTTCTGTTCAAGCGCCATCTAC”, the binding signal (RPM ratio (pull-down/input)) came out at 0.451.

As to “GATGATTGTTCTCCCAGCTGATGAATTCCGCAACTCGAGTAAACAAATTTTCCTAATCTTTCTGTTCAAGCGCCATCTAC”, the binding signal (RPM ratio (pull-down/input)) was determined as 6.11. With “GATGATTGTTCTCCCAGCTGATGAATTCAAAAATTCGAGTAAACAAATTTTCCTAATCTTTCTGTTCAAGCGCCATCTAC”, the binding signal (RPM ratio (pull-down/input)) was determined as 0.233. The result for “GATGATTGTTCTCCCAGCTGATGAATTTGGTGCTTCGAGTAAACAAATTTTCCTAATCTTTCTGTTCAAGCGCCATCTAC” reads 1.59; that for “GATGATTGTTCTCCCAGCTGATGAATTTAGTAGTTCGAGTAAACAAATTTTCCTAATCTTTCTGTTCAAGCGCCATCTAC”, 2.33. As for “GATGATTGTTCTCCCAGCTGATGAATTTGTTCCGTCGAGTAAACAAATTTTCCTAATCTTTCTGTTCAAGCGCCATCTAC”, the binding signal (RPM ratio (pull-down/input)) came to 2.26.
